According to the RNAGym collection of RNA variant scans (doi:10.7554/elife.90254):
The source gives no read counts; variants with many changes may rest on few reads.

B1: OR4K15 (parent)
chain: GUUAACGGUCAUAGGCCAUGGAAACUAGGAGCACCAUUUCGCUGCCAGUGAAGAAAUGAACAAAGAAAAUCUGGGCCAGGCAGGCAUCAAAAGAAAUAGUCUUGCGCUCAACCAGAAAGUCUGUAAUCAUUUUAAGGGUA

Variants of: B1
Experiment: self-cleavage, relative activity (ratio to wild type); higher = more cleavage; in vitro, sequencing; the parent is a self-cleaving ribozyme

Row | Variant | self-cleavage
1 | GUUAACGGUCAUAGGCCAUGGAAACUAGGAGCACCAUUUCGCUGCCGGUGAAGAAAUGAACAAAGAAAAUCUGGGCCAGGCAGGCAUCAAAAGAAAUAGUCUUGCGCUCGACCAGAAAGUCUGUAACCAUUUUAAGGGUA [A47G A110G U127C] | 0.02
2 | GUUAACGGUCAUAGGCCAUGGAAACUAGGAGCACCAUUUCGCUGCCUGUGUGGAAAUGAACAAAGAAAAUCUGGGCCAGGCAGGCAUCAAAAGAAAUAGUCUUGCGCUCAACCAGAAAGUCUGUAAUCAUUUUAAGGGUA [A47U A51U A52G] | 0.87
3 | GUUAACGGUCAUAGGCCAUGGAAACUAGGAGCACCAUUUCGCUGCCUGUGAAGAAGUGAACAAAGAAAAUCUGGGCCAGGCAGGCAUCAAAAGAAAUGGUCUUGCGCUCAACCAGAAAGUCUGUAAUCAUUUUAAGGGUA [A47U A56G A98G] | 0.08
4 | GUUAACGGUCAUAGGCCAUGGAAACUAGGAGCACCAUUUCGCUGCCUGUGAAGGAAUGAACAAAGAAAAUCUGGGCCAGGCAGGCAUCAAAAGAAAUAGUCUUGCGCUCAGCCAGAAAGUCUGUAAUCAUUUUAAGGGUA [A47U A54G A111G] | 0.01
5 | GUUAACGGUCAUAGGCCAUGGAAACUAGGAGCACCAUUUCGCUGCCGGUGAAGAAAUGAACAAAGAAAAUCUGGGCCAGGCAGGCAUCAAAAGAAAUAGUCUUGCGCUCAACCAGAACGUCCGUAAUCAUUUUAAGGGUA [A47G A118C U122C] | 0.29
6 | GUUAACGGUCAUAGGCCAUGGAAACUAGGAGCACCAUUUCGCUGCCUGUGAAGAAGUGAACAAAGAAAAUCUGAGCCAGGCAGGCAUCAAAAGAAAUAGUCUUGCGCUCAACCAGAAAGUCUGUAAUCAUCUUAAGGGUA [A47U A56G G74A U131C] | 0.18
7 | GUUAACGGUCAUAGGCCAUGGAAACUAGGAGCACCAUUUCGCUGCCUGUGUAGAAAUGAACAAGGAAAAUCUGGGCCAGGCAGGCAUCAAAAGAAAUAGUCUUGCGCUCAACCAGAGAGUCUGUAAUCAUUUUAAGGGUA [A47U A51U A64G A117G] | 1.03
8 | GUUAACGGUCAUAGGCCAUGGAAACUAGGAGCACCAUUUCGCUGCCGGUGAAGAAAAGAACAAAGAAAAUCUGGGCCAGGCAGGCAUCAAAAGAAAUAGUCUCGCGCUCAACCAGAAAGUCUGAAAUCAUUUUAAGGGUA [A47G U57A U103C U124A] | 0.07
9 | GUUAACGGUCAUAGGCCAUGGAAACUAGGAGCACCAUUUCGCUGCCUGUGAAGUAAUGAGCAAAGAAAAUCUGGGCCAGGCAGGCAUCAAAAGAAGUAGUCUUGCGCUCAACCAGAAAGUCUGUAAUCAUUUUAAGGGUA [A47U A54U A60G A96G] | 0.92
10 | GUUAACGGUCAUAGGCCAUGGAAACUAGGAGCACCAUUUCGCUGCCUGUGAAGAGAUGAGCAAAGAAAAUCUGGGCCAGGCGGGCAUCAAAAGAAAUAGUCUUGCGCUCAACCAGAAAGUCUGUAAUCAUUUUAAGGGUA [A47U A55G A60G A82G] | 0.16
11 | GUUAACGGUCAUAGGCCAUGGAAACUAGGAGCACCAUUUCGCUGCCGGUGAAGAAAUGAACAAAGAAAAUCUGGGCCAGGCAGGCAUCAAAAGAAAUAGUCUUGCGCUCAACCAGAAAGUCUGGAAUCAUUUUAAGGGUG [A47G U124G A140G] | 0.75
12 | GUUAACGGUCAUAGGCCAUGGAAACUAGGAGCACCAUUUCGCUGCCGGUGAAGAAAUGAACAAAGAAAAUCAGGGCCAGGCAGGCAUCAAAAAAAGUAGUCUUGCGCUCAACCAGAAAGUCUGUAAUCAUUUUAAGGGUA [A47G U72A G93A A96G] | 0.1
13 | GUUAACGGUCAUAGGCCAUGGAAACUAGGAGCACCAUUUCGCUGCCGGUGAAGAAAUGAACAAAGAAAAUCUGGGCCAGGCAGGCAUCAAAAGAAAUAGUCUUGCGCCCAACCAGAGAGUCUGUAAUCAUUUUAAGGGUA [A47G U108C A117G] | 0.01
14 | GUUAACGGUCAUAGGCCAUGGAAACUAGGAGCACCAUUUCGCUGCCGGUGAAGAAAAGAGCGAAGAAAAUCUGGGCCAGGCAGGCAUCAGAAGAAAUAGUCUUGCGCUCAACCAGAAAGUCUGUAAUUAUUUUAAGGGUA [A47G U57A A60G A62G A90G C128U] | 0.19
15 | GUUAACGGUCAUAGGCCAUGGAAACUAGGAGCACCAUUUCGCUGCCGGUGAAGAAAUGAACAAAGAAAAUCUGGGCCAGGCAGGCAUCAAAAGAAAUAGUCUUGCGCUCAACCAGAGAGUCUGGAAUCAUUUUAAGGGUA [A47G A117G U124G] | 0.92
16 | GUUAACGGUCAUAGGCCAUGGAAACUAGGAGCACCAUUUCGCUGCCGGUGAAGAAAUGAACAAAGAAAAUCUGGGCCAGGCAGGCAUCAAAAGAAAUAACCUUGCGCUCAACCAGAAAGUCUGUAAUCAUUUUAAGGGUA [A47G G99A U100C] | 0.26
17 | GUUAACGGUCAUAGGCCAUGGAAACUAGGAGCACCAUUUCGCUGCCGGUGAAGAAAUGAACAAAGAAAAUCUGGGCCAGGCAAGCAUCAAAAGAAAUAGUCUUGCGCUCAGCCAGAAAGUCUGUAAUCAUUUUAAGGGUA [A47G G83A A111G] | 0.02
18 | GUUAACGGUCAUAGGCCAUGGAAACUAGGAGCACCAUUUCGCUGCCUGUGAAGAGAGGAACAAAGAAAAUCUGGGCCAGGCAGGCAUCAAAAGAAAUAGUCUUGCGCUCAACCAGAAAGUCUGUAAUCAUUUUAAGGGUA [A47U A55G U57G] | 0.27
19 | GUUAACGGUCAUAGGCCAUGGAAACUAGGAGCACCAUUUCGCUGCCGGUGAAGAAACGAACAAGGAAAAUCUGGGCCAGGCAGGCAUCAAAAGAAAUAAUCUUGCGCUCAACCAGAAAGUCUGUAAUCAUUUUAGGGGUA [A47G U57C A64G G99A A135G] | 0.07
20 | GUUAACGGUCAUAGGCCAUGGAAACUAGGAGCACCAUUUCGCUGCCGGUGAAGAAAUGAACAAAGAAAAUCCGGGCCAGGCGGGCAUCAAAAGAAAUAGCCUUGCGCUCAACCAGAAAGUCUGUAAUCAUUUUAAGGGUA [A47G U72C A82G U100C] | 0.38
21 | GUUAACGGUCAUAGGCCAUGGAAACUAGGAGCACCAUUUCGCUGCCUGUGAGGGAAUGAACAAAGAAAAUCUGGGCCAGGCAGGCAUCAAAAGAAAUAGCCUUGCGCUCAACCAGAAAGUCUGUAAUCAUUUUAAGGGUA [A47U A52G A54G U100C] | 1.55

Row | Variant | self-cleavage
22 | GUUAACGGUCAUAGGCCAUGGAAACUAGGAGCACCAUUUCGCUGCCGGUGAAGAAAUGAACAAAGAAAAUCUGGGCCAGGCAGGCAUCAAAAGAAAUAGUCUUGCGCGCAACCAGGAAGUCUGUAAUCAUUUUAAGGGUA [A47G U108G A116G] | 0.03
23 | GUUAACGGUCAUAGGCCAUGGAAACUAGGAGCACCAUUUCGCUGCCGGUGAAGAAAUGAACAAAGAAAAUCAGGGCCAGGCAGGCAUCAAAAGAAAUAGUCUUGCGCUCAACCAGAAAGUCUGUAAUCAUUAUAAGGGUA [A47G U72A U132A] | 0.26
24 | GUUAACGGUCAUAGGCCAUGGAAACUAGGAGCACCAUUUCGCUGCCUGUGAAGAGAUGAACAAAGAAAAUCUGGGCCAGGCAGGCAUCAAAAGAAAUAGUCUUGCGCUCAACCAGAAAGUCUGUAGUCAUUUUAAGGGUA [A47U A55G A126G] | 0.67
25 | GUUAACGGUCAUAGGCCAUGGAAACUAGGAGCACCAUUUCGCUGCCGAUAAAGAAAUGGACAAAGAAAAUCUGGGCCAGGCAGGCAUCAAAAGAAAUAGUCCUGCGCUCAACCAGAAAGUCUGUAAUCAUUUUAAGGGUA [A47G G48A G50A A59G U102C] | 0.82
26 | GUUAACGGUCAUAGGCCAUGGAAACUAGGAGCACCAUUUCGCUGCCGGUGAAGAAAUGAACAAAGAAAAUCCGGGCCAGGCAGGCAUCAAAAGAAAUAGUCUUGCGCCCAACCAGAAAGUCUGUAAUCACUUUAAGGGUA [A47G U72C U108C U130C] | 0.01
27 | GUUAACGGUCAUAGGCCAUGGAAACUAGGAGCACCAUUUCGCUGCCGGCGAAGAAAUGAACAAAGAAAAUCUGGGCCAGGCUGGCACCAAAAGAAAUAGUCUUGCGCUCAACCAGAAAGUCUGUAAUCAUUUUAAGGGUA [A47G U49C A82U U87C] | 0.18
28 | GUUAACGGUCAUAGGCCAUGGAAACUAGGAGCACCAUUUCGCUGCCGGUGAAGAAAUGAACAAAGAAAAUCUGGGCCAGGCAUGCAUCAAAUGAAAUAGUCUUGCGCUCAACCAGAAAGUCUGUAAUCAUUUUAAGGGUA [A47G G83U A92U] | 0.37
29 | GUUAACGGUCAUAGGCCAUGGAAACUAGGAGCACCAUUUCGCUGCCGGUGAAGAAAUGAACAAAGAAAAUCUGGGCCAGGCAGGCAUCAAAAGAAAUAGUCUUGCGCUCAACCAGAAAGUCAGUAAUCAUCUUAAGGGUA [A47G U122A U131C] | 0.52
30 | GUUAACGGUCAUAGGCCAUGGAAACUAGGAGCACCAUUUCGCUGCCGGUGAAGAAAUGAACAAAGAAAAUCUGGGCCAGGCAGGCAUCAAAAGAAAUAGUCUCGUGCUCAACCAGAAAGUCUGUAAUCAUCUUAAGGGUA [A47G U103C C105U U131C] | 0
31 | GUUAACGGUCAUAGGCCAUGGAAACUAGGAGCACCAUUUCGCUGCCUGUGAAGAGAUGAACAAAGAAAACCUGGGCCAGGCAGGCAUCAAAAGAAAUAGUCUUGCGCUCAACCAGAAAGUCUGUAAUCAUUUUAAGGGUA [A47U A55G U70C] | 0.48
32 | GUUAACGGUCAUAGGCCAUGGAAACUAGGAGCACCAUUUCGCUGCCGGUGAAGAAAUGAACAAAGAAAAUCUGGACCGGGCAGGCAUCAAAAGAAAUAGUCUCGCGCUCAACCAGAAAGUCAGUAAUCAUUUUAAGGGUA [A47G G75A A78G U103C U122A] | 0.04
33 | GUUAACGGUCAUAGGCCAUGGAAACUAGGAGCACCAUUUCGCUGCCGGUGAAGAAAUGAACAAAGAAAAUCUGGGCCAGGCAGGCAUCAAAAGAAAUAGUCUUGCGCCCAACCAGAAAGUCUGUAACCAUUUUAAGGGUA [A47G U108C U127C] | 0
34 | GUUAACGGUCAUAGGCCAUGGAAACUAGGAGCACCAUUUCGCUGCCUGUGAGGAAAUGAACAAAGAAAAUCUGGGCCAGGCAGGCAUCAAAAGAAAUAGUCUUGCGCUCAACCAGAAAGUCUGUAAUCAUUCUAAGGGUA [A47U A52G U132C] | 0.72
35 | GUUAACGGUCAUAGGCCAUGGAAACUAGGAGCACCAUUUCGCUGCCUGUGAAGAAGUGAACAAAGAAAAUCUGGGCCAGGCAGGCAUCAAAAGAAAUAGUCUUGCACUCUACCAGAAAGUCUGUAAUCAUUUUAAGGGUA [A47U A56G G106A A110U] | 0.01
36 | GUUAACGGUCAUAGGCCAUGGAAACUAGGAGCACCAUUUCGCUGCCGGUGAAGAAAUGAACAAAGAAAAUCUGGGCCAGGCAGGCAUCAAAAGAGAUAGUCUUGCGCUCAACCAGAAAGUCUGUAAUCAUCUUAAGGAUA [A47G A95G U131C G138A] | 0.87
37 | GUUAACGGUCAUAGGCCAUGGAAACUAGGAGCACCAUUUCGCUGCCGGUGAAGAAAUGAACAAAGAAAAUCUGGGCCAGGCAGGCAUCAAAAGAAAUGGUCUUGCGCUCAACCAGAAUGUCUGUAAUCAUUUUAAGGGUA [A47G A98G A118U] | 0.05
38 | GUUAACGGUCAUAGGCCAUGGAAACUAGGAGCACCAUUUCGCUGCCGGUGAAGAAAUGAACAAAGAAAAUCUGGGCCAGGCAGGCAUCAAAAGAAAUAGUCUUGCGCCCAACCAGAAAGCCUGUAAUCAUUUUAAGGGUA [A47G U108C U120C] | 0.01
39 | GUUAACGGUCAUAGGCCAUGGAAACUAGGAGCACCAUUUCGCUGCCGGUGAAGAAAUGAACAAAGAAAAUCUGGGCCAGGCAGGCAUCAAAAGAAACAGUCUUGCGCUCAACCAGAAAGUCUGUAACCAUUUUAAGGGUA [A47G U97C U127C] | 0.2
40 | GUUAACGGUCAUAGGCCAUGGAAACUAGGAGCACCAUUUCGCUGCCUGUGAAGGAAUGAACAAAGAAAAUCUGGGCCAGGCAGGCAUCAAAAGAAAUAGCCUUGCGCUCAACCAGAAAGUCUGCAAUCAUUUUAAGGGUA [A47U A54G U100C U124C] | 2.45
41 | GUUAACGGUCAUAGGCCAUGGAAACUAGGAGCACCAUUUCGCUGCCUGUGAAGAAGUGAACAAAGAAAGUCUGGGCCAGGCAGGCAUCAAAAGAAAUAGUCUUGCGUUCAACCAGAAAGUCUGUAAUCAUUUUAAGGGUA [A47U A56G A69G C107U] | 0.02
